Read counts are not given, so values of variants with three or more changes are uncertain.

We go through 167 variants from the RNAGym collection of RNA variant scans (doi:10.1093/nar/gkz1192).

The chains are these.
B1: CPEB3 Ribozyme (parent)
chain: UAACAGGGGGCCACAGCAGAAGCGUUCACGUCGCAGCCCCUGUCAGAUUCUGGUGAAUCUGCGAAUUCUGCUGUAUAUCUC

In the series the parent is B1. In words: self-cleavage, relative activity (ratio to wild type); higher = more cleavage; in vitro, sequencing. The essentials: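 Libraries of CPEB3 self-cleaving ribozyme mutants came from rounds of error-prone PCR and carried barcodes, which DNA sequencing matched to variants. In vitro transcription used T7 RNA polymerase at 37°C for 5 hours, with a further 15 min in DNase I before EDTA stopped the reaction; the ribozymes cleaved during both steps. The RNA was reverse transcribed with template switching and sequenced on Illumina. Relative activity is the cleaved/total read fraction of a variant divided by that of the unmutated ribozyme, averaged over three batches with at least 5 reads.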
In the case of A20G U41A U51C A57G C62A, the self-cleavage turned out to be 0.17.
To A20G C40U A45G U72A U78C U80C belongs 0.2; to A20G C27U U72C U74C, 0.07; to A20G U25C C59G, 0.1.
To A20G C38G U48C U60C A65G belongs 0.29.
For A20G G22C A64G A77G, the self-cleavage stood at 0.07.
The value for A20G C34G U80A was 0.09; that for A20G U25A U41A U54A C62U A64G G70C was 0.06; that for A20G U31A U67C U78C was 0.4.
The value for A20G C40A U54C U72C U76A was 0.07; that for A20G U41A A64U was 0.4.
The value for A20G U26C U41C was 0.41.
As for A20G U26C C37U A77U, the self-cleavage came out at 0.54.
To A20G U31A U54C belongs 0.29; to A20G U26C U49C, 0.3.
For A20G U41C A56U A57G, the self-cleavage came to 0.29.
To A20G U31C U43C U78C belongs 0.37; to A20G U25C U54C, 0.07; to A20G U25C A57G A64G U80A, 0.25.
For A20G U26C A57G U67C C71G A75G, the self-cleavage was 0.07.
With A20G U26C U69C U74A, the self-cleavage was found to be 0.24.
The value for A20G U31C C62G A65G was 0.16; that for A20G G46A U78G was 0.23; that for A20G C23U U31A U78C was 0.19.
The value for A20G G36U U41C U69C was 0.08; that for A20G U26A U31C U60C G73U was 0.09; that for A20G U41A A56G U66C G73A A77G was 0.03.
The value for A20G G52U U67C U78C was 0.91; that for A20G U26C A35G U54C A65G was 0.45; that for A20G U26C A28G C38A A45U G63A was 0.35.
For A20G U26A C27G U41C, the self-cleavage is 0.32.
To A20G U31C U41A A45U U54G belongs 0.07.
The value for A20G U25C U43C U60C was 0.25; that for A20G G46U U48A U60C was 0.1.
In the case of A20G U25C U31G C38U U78A, the self-cleavage worked out at 0.04.
As to A20G U25C U72A U76C, the self-cleavage came to 0.27.
The value for A20G C40A U51G A65G U72A was 0.08.
As to A20G C27A U51C U60C, the self-cleavage stood at 0.15.
With A20G G24A A64G U72C U80A, the self-cleavage is 0.06.
On to A20G U31G U43C A45U, for which the self-cleavage stood at 0.19.
Regarding A20G C37A U43A U48C A64U, the self-cleavage was found to be 0.06.
To A20G U31A U72C U80C belongs 0.39.
The value for A20G U41A A57G was 0.1; that for A20G U25C A35U U51C U60A A77G was 0.17; that for A20G U26C U41G U43C U69A U72A U80C was 0.16.
With A20G G42C U74G, the self-cleavage stood at 0.32.
To A20G G33A U51A U69C belongs 0.06.
Take A20G U25C A47G: the self-cleavage stood at 0.33.
In the case of A20G G30A U69C, the self-cleavage stood at 0.15.
Take A20G U31C U54G U60A: the self-cleavage was 0.14.
To A20G U25A A35U belongs 0.27; to A20G C39U U43C, 0.35; to A20G C39A A45G U67A U69C G70A U80C, 0.12.
In the case of A20G G53U U72C, the self-cleavage was found to be 0.71.
To A20G U41A U51A belongs 0.65; to A20G U26C U54G U78C, 0.14; to A20G G22A A28G U67C, 0.09.
The value for A20G U25C A64G was 0.29; that for A20G U26A G36A U41A U69C U72C was 0.07; that for A20G U41A U67C U78C was 0.14.
Regarding A20G U25C U41C U49C A56U U67C, the self-cleavage was 0.04.
To A20G G33A U48C U58C belongs 0.29.
Regarding A20G U25A U78C, the self-cleavage came to 0.22.
To A20G U26C U60A belongs 0.31.
To A20G U25C A45G A56U belongs 0.08.
In the case of A20G G33A C38U A56U A64G U69C, the self-cleavage was 0.02.
The value for A20G U26A U41C A45U was 0.12; that for A20G U25C A56G U80A was 0.3; that for A20G U25C G30A A45G was 0.08.
To A20G C23A A35U belongs 0.32; to A20G U41A A56U U78C, 0.09; to A20G C27U U69A, 0.25.
Consider A20G U25C A28G U69A, for which the self-cleavage was determined as 0.04.
To A20G G63A A65U U67C belongs 0.49; to A20G G33A U41C U51C A56C, 0.09; to A20G U41A U60A U76A, 0.
As to A20G A77U U80C, the self-cleavage came to 1.22.
To A20G G46U U54C U72C U80A belongs 0.1; to A20G G30A U54G U60C, 0.15; to A20G U26A A35U A64G, 0.15.
Turning to A20G U26A U41C, the self-cleavage was determined as 0.44.
To A20G C29U U48C G63C belongs 0.22; to A20G U31C A45G U54A, 0.42.
The value for A20G G63A U76C U80A was 0.82; that for A20G C37U U58C A64G U69C U72C was 0.06; that for A20G G46A C68A was 0.
To A20G G30A U31C U54C U60A A64G belongs 0.07.
Turning to A20G U41A U54A, the self-cleavage is 0.24.
The value for A20G U41A U72A was 0.25; that for A20G U26C A45G U54G A64G U72A A77U was 0.08.
To A20G U25C U72C U80A belongs 0.11.
For the variant A20G G33A A45U U54C, the self-cleavage amounted to 0.11.
To A20G U31A U60C U72C belongs 0.36; to A20G C32U A47C C50U U60A, 0.07.
The value for A20G U31C U41A U60C was 0.37.
The value for A20G U41A U49A was 0.19; that for A20G C27A U67A was 0.28; that for A20G U31A U78C was 0.38.
For A20G C38A A65U U74C, the self-cleavage was determined as 0.16.
The value for A20G C29U A47G A65U was 0.25; that for A20G G30C U48C A56U was 0.04; that for A20G U26C G63A A64G U72C was 0.07.
To A20G C29U U41C U76C U78G belongs 0.24; to A20G U26A A56G U58C A64G U72C A75G, 0.
Turning to A20G C37U U67A, the self-cleavage turned out to be 0.26.
To A20G A77G U78C belongs 0.68.
Regarding A20G A77G U78A, the self-cleavage worked out at 1.1.
The value for A20G C38U A56U U72C was 0.08.
The value for A20G G30A U76C was 0.17; that for A20G C27G U49A was 0.13.
For A20G C38U U80C, the self-cleavage was found to be 0.31.
Consider A20G C23A U25C G30U, for which the self-cleavage came to 0.16.
Turning to A20G U25A U31C A57G, the self-cleavage was determined as 0.08.
The value for A20G U25C U31C U58A U60A was 0.07.
On to A20G U41A U66A, for which the self-cleavage worked out at 0.19.
To A20G U31C U58G belongs 0.07; to A20G U26A U69A, 0.18.
With A20G G22C U54C A77G, the self-cleavage came out at 0.17.
Take A20G U31C A35G G63C: the self-cleavage came out at 0.87.
The value for A20G U31C A35G G42A A56U was 0.08; that for A20G U26A A35U U43C A45G A64G U74A was 0.04; that for A20G U41A A56G A77U was 0.11.
With A20G U26C U51C A64U, the self-cleavage was found to be 0.08.
To A20G G24A A47G U49C belongs 0.08; to A20G G36U U49C A57U, 0.41; to A20G C38U U51C U78C, 0.29.
Turning to A20G U25C A35G, the self-cleavage is 0.39.
Regarding A20G C23U U25C A28G U78C, the self-cleavage was 0.17.
To A20G U26A A47U A56G belongs 0.07; to A20G U26C U31C C32A, 0.21; to A20G C27U C40U A75G, 0.2.
With A20G C29A U43C A47G U49A, the self-cleavage stood at 0.05.
To A20G C23U C71U belongs 0.1; to A20G G52A U80C, 1.01.
The value for A20G G22A G46A U76A was 0.18; that for A20G C38U U43C was 0.16; that for A20G U25A U41C U51A A64U was 0.09.
A20G G30U A47G: the self-cleavage was found to be 0.22.
As to A20G U31A C59U, the self-cleavage came to 0.46.
As for A20G G30A U41C U43C U69A, the self-cleavage was determined as 0.04.
The value for A20G C38U U43C U54G G73A was 0.07; that for A20G U25C U41A U43C was 0.07.
Take A20G U25C U60A: the self-cleavage stood at 0.12.
In the case of A20G C29A U66C, the self-cleavage was found to be 0.21.
Consider A20G G63A U69A, for which the self-cleavage is 0.29.
To A20G U41A A65U belongs 0.15; to A20G C27U U48C A77U U78C, 0.07; to A20G C40U C71G U72A, 0.08.
To A20G U25A G33U belongs 0.07; to A20G U25C U26A A28C A75G, 0.08.
The value for A20G C27A C40A U49C U69A U76C was 0.04.
For the variant A20G G33A A56U U60C, the self-cleavage turned out to be 0.13.
As to A20G U26A C27G U41C U60G, the self-cleavage stood at 0.14.
As to A20G C34A G63U, the self-cleavage was determined as 0.12.
To A20G U31A U60A belongs 0.09; to A20G U25C C32A U54A C59U U60A A64G, 0.06.
As for A20G U25C A65U U72A, the self-cleavage was found to be 0.07.
Consider A20G U31A U49C U51G G63A U72C U80A, for which the self-cleavage was 0.21.
In the case of A20G C29U U51A, the self-cleavage was 0.71.
On to A20G C38U U51G U72A, for which the self-cleavage was 0.28.
The value for A20G C34U A47G U48C U51C A64G C79U was 0.34; that for A20G C37U U41C A47U U67C was 0.48; that for A20G C40U U49A U51C U54C was 0.18.
The value for A20G U31A A45G was 0.46.
To A20G U31C U54C A64G U66C belongs 0.14.
Turning to A20G U31C A35G U58C A64G, the self-cleavage came out at 0.22.
To A20G G30A U49G U76C belongs 0.08.
